PubChem BioAssay AID1508624 (National Center for Advancing Translational Sciences (NCATS), 2021)
About 120 (0.25%) of roughly 48,000 compounds were called active. Another 4% or so got no clear call; they are omitted. Calls follow the shape of the dose curve; as a rule, active = well fitted activation curve with a large enough effect; inconclusive = small, poorly fitted or top-dose-only effect, or another doubt; inactive = no such curve, though single readings can be large or run the other way. This is one part of the list.

test: Primary qHTS for Identification of Small Molecule Activators of Huntingtin-Antisense Promoter Activity; settings: HEK293 HTT-AS promoter firefly luciferase reporter, 24 h; series mostly up to 57.5 µM; activity change, positive = activation: at the top concentration; also: nearly all actives have a fitted effect of over 55% in size
Summary of the method: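 Firefly luciferase readout (Dual-Glo, 10 min RT) after 24 h, 37 °C compound exposure (final up to 57.5 uM) of HEK293 reporter cells cultured 24 h beforehand; PTC124 at 50 uM final as control inhibitor; activity scaled vehicle 0%, zero RLU -100%.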

Structure (SMILES)	activity change, positive = activation
CCOC(=O)c1[nH]c(C)c(CCC(=O)Nc2cccc(C(F)(F)F)c2)c1C	inactive: -14.2%
COc1cc(CNCCSc2nnnn2C)ccc1OCc1ccc(F)cc1	inactive: -4.09%
CC(CNC(=O)c1nnc(Cc2cccc(F)c2)o1)c1ccccc1 (configuration not stated)	inactive: -13.8%
CCOC(=O)c1sc(NC(=O)C(C)Oc2ccc(OC)cc2)c(C(=O)OCC)c1C (configuration not stated)	inactive: -4.04%
COc1ccc(C(=O)Nc2cc(-c3ccccc3)nn2-c2ccccc2)cc1	inactive: -5.7%
CCOC(=O)c1cccc(NC(=O)c2cc3cc4cc(OC)ccc4nc3s2)c1	inactive: -9.27%
Cc1ccc(NC(=O)COc2ccc(-c3nn(C)c(=O)c4ccccc34)cc2)cc1	inactive: -35.9%
COc1ccc(C)cc1NC(=O)CN1C(=O)COc2ccc(S(=O)(=O)N3CCOCC3)cc21	inactive: -3.43%
O=C(COCc1cc(-c2cccs2)on1)Nc1cc(Cl)ccc1O	inactive: -9.2%
Cc1nc(-c2ccc(OCC(C)C)c(C#N)c2)sc1C(=O)O	inactive
CN(C)c1ccc(CNC(=O)C2CCCN(S(=O)(=O)c3ccc4c(ccn4C)c3)C2)cc1 (configuration not stated)	inactive: -30.8%
CCOc1ccccc1NC(=O)Cn1c(=O)oc2cc(S(=O)(=O)NCc3ccccc3)ccc21	inactive: -2.6%
COC(=O)C1=C(C)NC(=O)C1(NC(=O)c1ccc(Cl)cc1)C(F)(F)F (configuration not stated)	inactive: -0.0679%
CCN1CCC(N(Cc2cccc(OC)c2)C(=O)Nc2cccc(C)c2C)CC1	inactive: -14.3%
CC1=Nc2cc(C(=O)NCc3ccc(C)cc3)ccc2Sc2ccc(Cl)cc21	inactive: -28.7%
CCNC(=O)CCCC=CC[C@@H]1[C@H](C=CC(O)CCc2ccccc2)[C@@H](O)C[C@@H]1O (some centres not stated)	inactive: -6.66%
COc1ccc2cc([S+]([O-])Cc3ncc(C)c(OC)c3C)nc2c1	inactive: 1.79%
COc1cccc(N2CCN(C(=O)CCS(=O)(=O)c3ccc4c(c3)CC(=O)N4C)CC2)c1	inactive: -2.32%
O=C(Cn1c(=O)oc2cc(S(=O)(=O)N3CCCC3)ccc21)NCc1ccc(Cl)cc1	inactive: -28.3%

Structure (SMILES)	activity change, positive = activation
Cc1ncc(CO)c2c1Oc1nc(-c3ccccc3)nc(SCC(=O)N3CCCCC3)c1C2	inactive: -1.73%
CCN(CC)C(=O)Cn1c(=O)n(Cc2ccc(C(=O)NCc3ccc(C)cc3)cc2)c(=O)c2ccccc21	inactive: -10.2%
CS(=O)(=O)N1CCc2cc(C(=O)Nc3ccc(Cl)c(C(F)(F)F)c3)ccc21	inactive: -45.9%
CCOCCCNC(=O)c1cc2c(=O)n(C)c3ccccc3c2n1C	inactive: -19%
Cc1ccc(NC(=O)c2cn3c4c(ccc(Cl)c4c2=O)OC(C)C3)cc1C (configuration not stated)	inactive: 0.191%
COc1ccc(NC(=O)Cn2c(=O)n(-c3cccc(C)c3)c(=O)c3c2c2cc(C)ccc2n3C)cc1Cl	inactive: -29.4%
CCOc1cc2sc(N3CCC(C(=O)Nc4ccccc4C(=O)OC)CC3)nc2cc1Br	inactive: 15.1%
O=C(C1CCC(CNS(=O)(=O)c2ccc(Br)s2)CC1)N1CCN(c2ccccc2Cl)CC1 (configuration not stated)	inactive: -22.8%
CCOc1ccc(NC(=O)CN2C(=O)c3ccccc3Sc3ccc(C(=O)OC)cc32)cc1	inactive: -0.744%
Cc1ccc2c(c1)c(=O)c1ccccc1n2CCCC(=O)Nc1ccc(Cl)c(Cl)c1	inactive: -22.8%
Cc1cc(C)cc(-n2c(SCC(=O)NCc3ccc(F)cc3)nc3c([nH]c4ccccc43)c2=O)c1	inactive: -16.1%
COc1cc(NC(=O)CSc2nc(-c3ccccc3)no2)cc(OC)c1	inactive: -12.7%
COc1cccc(NC(=O)CN2C(=O)CC(c3ccco3)Sc3ccccc32)c1 (configuration not stated)	inactive: -28.9%
COC(=O)c1sc(-c2ccccc2)cc1NC(=O)c1cccc(Cl)c1	inactive: -7.97%
Cc1cccc(C)c1NC(=O)C(=O)NCC(c1cccnc1)N1CCc2ccccc21 (configuration not stated)	inactive: -28.1%
O=C(C1CCC(Cn2c(=O)c3sccc3n(Cc3ccccc3F)c2=O)CC1)N1CCOCC1 (configuration not stated)	inactive: -28.1%
CN(C)c1ccc(C(=C2C=CC(=[N+](C)C)C=C2)c2ccc(N(C)C)cc2)cc1	inactive
O=C(CSc1nc2c([nH]c3ccccc32)c(=O)n1-c1ccc(Cl)cc1)NC1CCCCC1	inactive: -45.6%
CCc1ccc(NC(=O)N2CCN(Cc3nc4ccc(C)cc4o3)CC2)cc1	inactive: -19.4%

Structure (SMILES)	activity change, positive = activation
CCCCNC(=O)Nc1ccc2c(c1)N(C)C(=O)c1ccccc1S2	inactive: -35.3%
CCN(CC)C(=O)CN1C(=O)COc2ccc(S(=O)(=O)N3CCOCC3)cc21	inactive: -3.7%
CC(=O)[C@H]1CC[C@H]2[C@@H]3CC=C4C[C@@H](O)CC[C@]4(C)[C@H]3CC[C@]12C	inactive
COc1ccc(CC2c3cc(OC)c(OC)cc3CC[N+]2(C)CCC(=O)OCCCCCOC(=O)CC[N+]2(C)CCc3cc(OC)c(OC)cc3C2Cc2ccc(OC)c(OC)c2)cc1OC (configuration not stated)	inactive: -8.26% [at 11.5 µM, percent change from vehicle, -100% = no light]
COc1ccc(NC(=O)Cn2nnc(C(=O)NCc3ccco3)c2N)c(OC)c1	inactive: -17.4%
Cc1cc(Nc2cccc(Br)c2)n2c(nc3ccccc32)c1C#N	inactive: -21.3%
Cc1ccc(N2CCN(C(=O)c3cn(C)c4ccc(S(=O)(=O)N5CCCC5)cc4c3=O)CC2C)cc1 (configuration not stated)	inactive: -9.52%
CC(=O)Nc1ccc(S(=O)(=O)NCC2CCC(C(=O)NCc3ccccc3)CC2)cc1 (configuration not stated)	inactive: -14.6%
CCOc1cc(C(Nc2cc(C)ccn2)c2ccc3cccnc3c2O)ccc1OC (configuration not stated)	inactive: -39.1%
COc1ccc(N2CCN(S(=O)(=O)c3cc(Br)cc4c3N(C(=O)C3CC3)CC4)CC2)cc1	inactive: -22.5%
CC(C)(C)OC(=O)N1CCC(c2c(C(=O)N3CCN(c4ccccn4)CC3)cnn2-c2cccc(F)c2)CC1	inactive: 0.782%
Cc1ccc(NC(=O)Cn2c(=O)n(Cc3ccco3)c(=O)c3sc4ccccc4c32)c(C)c1	inactive: -9.1%
COc1cc2c(=O)c(S(=O)(=O)c3ccc(C(C)C)cc3)cn(Cc3ccccc3C)c2cc1OC	inactive: -28%
Cc1ccc(C(=O)NCC(c2ccco2)S(=O)(=O)c2ccccc2)cc1C (configuration not stated)	inactive: 2.29%
O=C(OCC(COC(=O)c1cccnc1)(COC(=O)c1cccnc1)COC(=O)c1cccnc1)c1cccnc1	inactive: -2.37%
CCOC(=O)c1c(C)c(-c2ccccc2)n(CC(=O)NCc2ccccc2)c1C	inactive: -18.7%
CCOC(=O)c1ccc(NS(=O)(=O)c2ccc3c(c2)CCN3C(=O)CC)cc1	inactive: -29.9%
COc1ccc(OC)c(NC(=O)COCc2cc(-c3ccco3)on2)c1	inactive: -11.6%
O=C(CSc1nccn1Cc1ccccc1)Nc1nc2ccccc2s1	inactive: 14.5%
